# Experimental data as given in PubChem BioAssay AID445 (National Center for Advancing Translational Sciences (NCATS), 2006).
# About 40 (0.04%) of roughly 110,000 compounds were called active. The shares of active, inactive and inconclusive entries below differ from those in the screen. Calls come from the whole dose curve; as a rule, active = well fitted curve in the direction sought with a large enough effect in the signal ratio (not every such curve was filed as active); inconclusive = small, poorly fitted or top-dose-only effect, or a change in a side signal; inactive = flat fitted curve, though single readings scatter; the % refers to the signal ratio. Potencies of inconclusive entries are doubtful fits and often do not repeat.
# Test: IkB Signaling;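 for IkBa stabilization activation: 0% = basal untreated cells and 100% = reference inhibitor full response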
# Conditions: ABC-DLBCL IkBa-CBG/CBR dual luciferase ratio (green luciferase fused to IkBa over red control in OCI-Ly3 lymphoma cells), 4 h; IkBa stabilization activation: at 57.1 µM (top of the series), scaled: untreated 0%, proteasome inhibitor 100% unless noted
# Source text: NIH Molecular Libraries Screening Centers Network [MLSCN]
# NIH Chemical Genomics Center [NCGC]
# Nuclear factor kappa-B (NF-kappa-B) plays an important role in normal B cell development and survival. Diffuse large B cell lymphoma (DLBCL) is the most commonly observed type of non-Hodgkin's lymphoma. Gene expression analysis has identified an activated B cell-like subtype of DLBCL (ABC-DLBCL) which expresses known NF-kappa-B target genes. […] However, targets upstream of IKK have been largely unexplored and so nodes upstream of IKK in the NF-kappa-B pathway remain untested due to the lack of chemical probes.
# A cell-sensor assay for I-kappa-B-alpha stabilization was developed with NIH investigator Dr. R. Eric Davis in Dr. Louis M. Staudt's laboratory. The assay uses green (CBG68) and red (CBR) emitting beetle luciferases [Chroma-Glo(TM) developed by Promega Corp.] where the green luciferase is fused to I-kappa-B-alpha and the red luciferase is present in its native state. Both luciferase genes are stably present in the OCI-Ly3 human ABC DLBCL cell line, but their expression is under the control of tetracycline-inducible promoters. Following the addition of doxycycline to induce expression of the luciferases, the green luminescence in control cultures rises only slowly because the CBG fusion partner I-kappa-B-alpha is targeted by IKK activity for rapid degradation. In contrast, green luminescence rises rapidly in the presence of proteasome inhibitors or IKK inhibitors. The rise in red luminescence of CBR is not affected by proteasome or IKK inhibitors, and serves as normalization for cell number and nonspecific effects. Compounds were screened as a concentration-titration series that ranged from 57 uM to 0.7 nM.
# NCGC Assay Protocol Summary:
# Cells were seeded in 1536-well plates at 5000 cells/3ul in IMDM medium containing 0.5% FBS, w/o phenol red, L-glutamine, 25 mM HEPES, 3 mg/ml sodium bicarbonate. After centrifugation for 1 min. at 1000 rpm, 23 nl of compounds or DMSO were delivered to each well using a pin tool. Then 1ul 80ng/ml doxycycline was dispensed into white solid 1536-well plates and the plates were incubated at 37C/5% C02 in a cell incubator for 4 hrs. Then 4 ul Chroma-Glo luminescent substrate mix (Promega) was added to each well. The plate was incubated at R.T. for 10-15 min. The plates were measured on a ViewLux plate reader for green luminescence (540/20 nm filter) and red luminescence (618/8 nm filter). The green and red luminescent signals were corrected for red and green luminescence filter overlap using previously determined filter calibration constants (determined using the procedure outlined in the Promega Technical Manual). The %Activity was determined from the ratio of corrected green/red luminescent values. Green luminescent and ratio %Activity was determined by normalizing to the difference in signal between basal cells (0% Activity) and cells incubated with 10 uM of the proteasome inhibitor MG-132 (100% Activity). Red luminescent %Activity was normalized to the difference between red luminesence in basal cells (0%Activity) and zero luminescence (-100% Activity).
# Concentration-response curves were fitted to the signals arising from the green luminescence (I-kappa-B-alpha-luciferase fusion; IkB-luc) and the red luminescence (unfused luciferase; luc) as well as the calculated ratio. The concentration-effect curves were then classified based on curve quality (r2), response magnitude and degree of measured activity. Compounds were then categorized based on their concentration-response curves for all three datasets (Ikb-luc, luc and ratio).
# Keywords: IKK, I-kappa-B, IkB, IkBa, cytotoxicity, luminescence, MLSMR, MLSCN, NIH Roadmap, qHTS, NCGC
# Potency is the fitted concentration of half-maximal effect.
SMILES,IkBa stabilization activation,Potency
NC1=NC2(CCC(c3ccccc3)CC2)n2c(nc3ccccc32)N1 (configuration not stated),inconclusive: 2.97% [signal inhibitor],–
COc1ccccc1-n1c(SCC(=O)NC(C)(C)C)nc(O)cc1=O,inactive: 10.2%,–
CCc1ccc(NC(=O)Cn2nc3c4ccccc4n(Cc4ccccc4)cc-3c2=O)cc1,inconclusive: -0.132% [signal inhibitor],–
CN(C)c1ncc2nc(-c3cc(F)cc(F)c3)c(=O)n(C[C@H]3CCCO3)c2n1,"inactive: 0.674% [at 11.4 µM, scaled: untreated 0%, proteasome inhibitor 100%]",–
O=C(c1ccc(CSc2nc3ccncc3n2Cc2ccc(F)cc2)cc1)N1CCCCCC1,inconclusive: 2.58% [signal inhibitor],–
CN(Cc1ccccc1)Cc1nc2c(c(=O)n(C)c(=O)n2C)n1CCc1ccccc1,inactive: 5.23%,–
O=C1CC(c2cccc(O)c2)c2c(nc(SCc3ccccc3F)[nH]c2=O)N1 (configuration not stated),inconclusive: 8.99% [signal inhibitor],–
CCN(C(=O)c1coc(=O)c(Br)c1)c1ccc2c(c1)OCO2,inactive: 4.33%,–
Cc1ccccc1CSc1nc2n(n1)C(c1cccs1)C1=C(CCCC1=O)N2 (configuration not stated),inconclusive: -0.288% [signal inhibitor],–
O=C(CN1CCC(C(=O)c2ccc(Cl)cc2)CC1)Nc1ccc2c(c1)OCCO2,inconclusive: 2.45% [signal inhibitor],–
COc1ccc(C(=O)N=c2nc3ccccn3s2)cc1,–,"inconclusive: 3.16 µM [signal inhibitor, partial curve]"
CN(C)CCCN(C(=O)c1cccs1)c1nc(-c2ccccc2)cs1,inactive: -2.38%,–
O=C(CSc1ncc(-c2ccccc2)n1-c1ccccc1)NCc1ccco1,inconclusive: 0.906% [signal inhibitor],–
Cn1c(C(=O)NCc2ccccc2F)cc2oc3ccccc3c21,inconclusive: 4.93% [signal inhibitor],–
CCN1CCN(c2oc(-c3ccc(COc4ccc(C)cc4)o3)nc2C#N)CC1,inconclusive: 0.342% [signal inhibitor],–
CCCCNC(=O)c1ccc2c(c1)NC(=O)C(CS(=O)(=O)Cc1cccc(C)c1)N2 (configuration not stated),inactive: 0.397%,–
CCOC(=O)N1CCN(C(=O)CSc2cc(C)nc3c(-c4ccccc4OC)c(C)nn23)CC1,–,"inconclusive: 39.8 µM [rising, single point]"
CC(C)C(=O)N1c2ncnn2C2(CCCCC2)[C@@H]2CCCC[C@@H]21,inactive: 0.186%,–
CC1=C(C(=O)Nc2cccnc2)C(c2cccc(F)c2)n2nc(SCc3ccccc3)nc2N1 (configuration not stated),inconclusive: -3.75% [signal inhibitor],–
CCOC(=O)Cn1c(=O)oc2cc(S(=O)(=O)NC3CCCc4ccccc43)ccc21 (configuration not stated),inconclusive: -8.29% [signal inhibitor],–
Cc1ccc(S(=O)(=O)N2CCN(Cc3noc(CCC(=O)N4CCCCC4)n3)CC2)c(C)c1,inconclusive: 3.04% [signal inhibitor],–

SMILES,IkBa stabilization activation,Potency
O=C(c1ccc2c(=O)n(-c3ccccc3)c(=O)[nH]c2c1)N1CCCCC1,inconclusive: 1.76% [signal inhibitor],–
CC(C)Cn1c(=O)c2sccc2n2c(CCCC(=O)NCCc3ccccc3)nnc12,inconclusive: -0.293% [signal inhibitor],–
Cc1ccc(S(=O)(=O)c2cn(CC(=O)Nc3ccc4c(c3)OCO4)c3ccccc3c2=O)cc1,inconclusive: 3.98% [signal inhibitor],–
Cc1cccc(N2CCN(C(=O)Cc3c(C(=O)O)[nH]c4ccc(Cl)cc34)CC2)c1C,inconclusive: 6.5% [signal inhibitor],–
COc1cccc(NC(=O)CSc2nc(=O)n(Cc3ccco3)c3c2CCC3)c1,inconclusive: 7.81% [signal inhibitor],–
CC1=C(C(=O)Nc2ccc(C)cc2C)C(C(C)C)n2nc(SCc3ccccc3Cl)nc2N1 (configuration not stated),inactive: 3.06%,–
CCN(CC)CCCNC(=O)CSc1c2c(nc3cc(Cl)ccc13)CCCC2,–,inconclusive: 15.8 µM [signal inhibitor]
C=CCC(CC=C)(CNC(=O)C(=O)Nc1cc(C)ccc1OC)c1ccc(OC)c(OC)c1,inconclusive: -0.793% [signal inhibitor],–
O=C(Cn1cc(S(=O)(=O)N2CCCC2)c(S(=O)(=O)N2CCCC2)c1)Nc1cccc(F)c1,inconclusive: 3.26% [signal inhibitor],–
COc1ccccc1CNC(=O)CN1C(=O)COc2ccc(S(=O)(=O)N3CCC(C)CC3)cc21,inconclusive: 1.16% [signal inhibitor],–
CCOC(=O)c1cccc(NC(=O)C2CCCN(S(=O)(=O)c3ccc4c(c3)oc(=O)n4C)C2)c1 (configuration not stated),inconclusive: 3.23% [signal inhibitor],–
CCc1ccc(NC(=O)C(C)n2nnc3sc(-c4ccccc4)cc3c2=O)cc1 (configuration not stated),inconclusive: 4.09% [signal inhibitor],–
COc1ccc(C(=O)COC(=O)c2ccc(OC)c(OC)c2)cc1OC,inactive: -1.45%,–
CC(C)C(=O)N(Cc1ccccc1)S(=O)(=O)c1ccc2c(c1)oc(=O)n2C,–,"inconclusive: 15.8 µM [signal inhibitor, partial curve]"
Cc1nc2nncn2c(NCc2ccc(Cl)cc2)c1C,inconclusive: -0.0613% [signal inhibitor],–
Cc1ccc(-c2cn3nc(C)c(C)nc3n2)cc1,–,"inconclusive: 3.98 µM [signal inhibitor, full curve]"
Cc1ccc(-n2c(=O)c3c4c(sc3n(Cc3cccc(Cl)c3)c2=O)CCC4)cc1C,inconclusive: 9.7% [signal inhibitor],–
COC(=O)c1c(NC(=O)CN2CCN(Cc3ccc4c(c3)OCO4)CC2)sc(C)c1C,inconclusive: 2.18% [signal inhibitor],–
Cc1ccc2nc(N3CCN(Cc4ccc(F)cc4)C3=O)c(C)cc2c1,inconclusive: 2.47% [signal inhibitor],–
Cc1nc2nc(SCC(=O)O)nn2c(C)c1Cc1c(F)cccc1Cl,inconclusive: 1.19% [signal inhibitor],–
Cc1ccc(CN(C(=O)COc2ccc(Cl)c(C)c2)C2CCS(=O)(=O)C2)o1 (configuration not stated),–,inconclusive: 20 µM [signal inhibitor]
